Test results: publication PMC11432763, “Machine Learning-Driven Discovery and Evaluation of Antimicrobial Peptides from Crassostrea gigas Mucus Proteome” (Marine Drugs, 2024)

Tests used:
Assay in all cases: Antimicrobial activity assay, broth microdilution, OD600
Assay type in all cases: cell-based
Settings in all cases: peptide 0-50 μM in LB, inoculum 1 × 10^5 cells, 12 h, 37 °C, OD600, triplicate
[1] = test system: Staphylococcus aureus ATCC 29213
Protocol: (§1) Candidate peptides were assessed for antimicrobial activity against Escherichia coli DH5α, Vibrio parahaemolyticus […], and Staphylococcus aureus ATCC 29213 using the method of Mao et al. with some modifications. […] LB broth without cells served as the blank control. […] Following a 12 h incubation at 37 °C, OD at 600 nm readings were taken in a microplate reader to assess bacterial growth inhibition. Data were presented as a heat map depicting antimicrobial efficacy against the three bacterial strains.

Escherichia coli DH5α = test system: Escherichia coli DH5α
Protocol: as §1

[2] = test system: Vibrio parahaemolyticus E151
Protocol: as §1

| Compound | Inhibitory effect on S. aureus growth (in words) [1] | Antimicrobial effect against E. coli (in words) (Escherichia coli DH5α) | Effect against V. parahaemolyticus (in words) [2] |
| --- | --- | --- | --- |
| CC[C@H](C)[C@H](NC(=O)[C@H](CCCCN)NC(=O)[C@H](Cc1ccc(O)cc1)NC(=O)[C@H](CCCCN)NC(=O)[C@H](CCCCN)NC(=O)[C@H](Cc1ccccc1)NC(=O)[C@H](CCCNC(=N)N)NC(=O)[C@H](CC(N)=O)NC(=O)[C@H](CCSC)NC(=O)[C@@H](NC(=O)[C@H](CC(C)C)NC(=O)[C@H](Cc1ccc(O)cc1)NC(=O)[C@@H](NC(=O)[C@H](C)NC(=O)[C@H](CCCNC(=N)N)NC(=O)[C@H](CCSC)NC(=O)[C@H](CCCCN)NC(=O)[C@H](CCCCN)NC(=O)[C@H](C)NC(=O)[C@H](CCCNC(=N)N)NC(=O)[C@H](CCCNC(=N)N)NC(=O)[C@@H](N)CCCNC(=N)N)[C@@H](C)CC)[C@@H](C)CC)C(=O)O [P4] (H-RRRAKKMRAIYLIMNRFKKYKI-OH; N-terminus and C-terminus assumed) | most substantial inhibitory effect | pronounced antimicrobial effects | marked, dose-dependent bactericidal effects |
| CC(C)C[C@H](NC(=O)[C@@H](N)CC(C)C)C(=O)N[C@@H](CCCNC(=N)N)C(=O)N[C@@H](CCCNC(=N)N)C(=O)N[C@@H](CCCCN)C(=O)N[C@@H](Cc1ccccc1)C(=O)N[C@@H](Cc1ccccc1)C(=O)N[C@@H](Cc1ccccc1)C(=O)O [S2] (H-LLRRKFFF-OH; N-terminus and C-terminus assumed) |  | slightly antimicrobial activity |  |
| LLFRRRLL [S1] |  | slightly antimicrobial activity |  |
| WKQIKFYVYNRILKKRK [P2, peptide … derived from Crassostrea gigas mucous proteins, selected by machine learning] |  | pronounced antimicrobial effects | marked, dose-dependent bactericidal effects |

Where a SMILES comes first, the peptide text is derived from it.
